{"source": "PubChem BioAssay AID720709", "about": "(National Center for Advancing Translational Sciences (NCATS), 2013)", "note": "The campaign covered roughly 360,000 compounds. About 520 (0.14%) were called active. The shares of active, inactive and inconclusive entries below differ from those in the screen. Calls follow the shape of the dose curve; as a rule, active = well fitted inhibition curve with a large enough effect; inconclusive = small, poorly fitted or top-dose-only effect; inactive = no such curve, though single readings can be large or run the other way. No potency is given beside an inconclusive call; the fits are too rough. Potency is read from the fitted curve at half-maximal effect; tags tell the direction and shape of the fitted curve.", "data": [{"target": "Rap guanine nucleotide exchange factor 3 (Homo sapiens) (UniProt O95398)", "sequence (O95398 whole entry, looked up)": "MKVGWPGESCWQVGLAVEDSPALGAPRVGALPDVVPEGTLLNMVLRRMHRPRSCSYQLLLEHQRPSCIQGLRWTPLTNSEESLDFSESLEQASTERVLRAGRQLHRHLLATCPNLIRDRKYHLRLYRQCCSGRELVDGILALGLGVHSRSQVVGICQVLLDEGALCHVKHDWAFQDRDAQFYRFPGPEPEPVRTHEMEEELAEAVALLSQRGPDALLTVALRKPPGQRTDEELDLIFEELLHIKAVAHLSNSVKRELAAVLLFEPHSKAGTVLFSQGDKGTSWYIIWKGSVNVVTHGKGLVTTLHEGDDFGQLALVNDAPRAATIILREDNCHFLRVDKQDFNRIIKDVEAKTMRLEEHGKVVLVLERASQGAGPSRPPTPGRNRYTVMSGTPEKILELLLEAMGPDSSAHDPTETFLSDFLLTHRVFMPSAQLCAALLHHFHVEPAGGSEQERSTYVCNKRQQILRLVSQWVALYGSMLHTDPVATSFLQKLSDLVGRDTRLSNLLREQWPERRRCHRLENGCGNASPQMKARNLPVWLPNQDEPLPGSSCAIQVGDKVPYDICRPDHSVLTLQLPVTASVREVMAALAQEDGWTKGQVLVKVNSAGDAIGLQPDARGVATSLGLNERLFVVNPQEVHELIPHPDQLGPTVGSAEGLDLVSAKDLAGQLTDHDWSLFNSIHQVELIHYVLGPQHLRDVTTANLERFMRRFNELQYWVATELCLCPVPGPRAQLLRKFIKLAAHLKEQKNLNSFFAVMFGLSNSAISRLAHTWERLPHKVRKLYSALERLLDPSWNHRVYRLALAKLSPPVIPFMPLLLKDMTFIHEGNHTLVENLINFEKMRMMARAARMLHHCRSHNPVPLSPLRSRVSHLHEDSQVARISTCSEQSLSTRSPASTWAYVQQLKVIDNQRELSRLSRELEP", "experiment": "qHTS for Antagonist of cAMP-regulated guanine nucleotide exchange factor 3 (EPAC1): primary screen; also: nearly all actives have a fitted effect of over 50% in size", "settings": "EPAC1 GEF assay, Rap1b-BODIPY-GDP exchange fluorescence; series mostly up to 115 µM", "values": [{"compound": "CCN(CC)c1ccc(/C=C2/C(=O)c3ccc(C(=O)O)cc3C2=O)cc1", "Potency": "inconclusive [inhibitor, single point]"}, {"compound": "Cc1ccc(NC(=O)c2nc(S(=O)(=O)Cc3ccccc3C)ncc2Cl)cc1C", "Potency": "inconclusive [inhibitor, partial curve]"}, {"compound": "COc1ccc(/C=N/N=C2/CC(C)(C)Cc3n[nH]c(=O)cc32)cc1", "Potency": "inactive"}, {"compound": "O=C(/C(=C/O)N=Nc1ccccc1)c1cccs1", "Potency": "inconclusive [inhibitor, single point]"}, {"compound": "NC(=O)CC(NC(=O)c1ccccc1)c1ccc(NCc2ccc(F)c(F)c2)c([N+](=O)[O-])c1", "note": "(centres undefined)", "Potency": "inconclusive [inhibitor, single point]"}, {"compound": "COCCOc1ccc(C(F)(F)F)cc1NC(=O)COC(=O)Cc1c[nH]c2ccccc12", "Potency": "inconclusive [inhibitor, partial curve]"}, {"compound": "CCOc1ncccc1C(=O)OCC(=O)Nc1cccc(S(=O)(=O)N2CCCCCC2)c1", "Potency": "inconclusive [inhibitor, partial curve]"}, {"compound": "CCC(C)NS(=O)(=O)c1ccc(-c2csnn2)s1", "note": "(centres undefined)", "Potency": "inconclusive [inhibitor, full curve, poor fit]"}, {"compound": "O=C(Nn1c(C2CCCCC2)nc2ccccc2c1=O)c1ccc([N+](=O)[O-])cc1", "Potency": "inconclusive [inhibitor, full curve, poor fit]"}, {"compound": "CC(C)N(Cc1cnn(C)c1)Cc1nc(Cc2ccccc2Cl)no1", "Potency": "inconclusive [inhibitor, single point]"}, {"compound": "COC(=O)c1ccc(COC(=O)C(CCSC)NC(=O)COc2ccccc2)cc1", "note": "(centres undefined)", "Potency": "inactive"}, {"compound": "CCOc1ccc(N=C2C(=O)Nc3ccc(C)c(Br)c32)cc1", "Potency": "inconclusive [inhibitor, single point]"}, {"compound": "O=C1CC(c2ccccc2)=NN1c1nc(-c2ccccc2)cs1", "Potency": "inconclusive [inhibitor, partial curve]"}, {"compound": "CCC(=O)N1Cc2cc(C(=O)NCc3cccc(F)c3)nc(-c3cccc(C4=CCCC4)c3)c2[C@H]1CCO", "Potency": "inactive"}, {"compound": "Cc1ccc(S(=O)(=O)Nc2ccccc2C=Nc2cccc(C)c2C)cc1", "Potency": "inconclusive [inhibitor, partial curve]"}, {"compound": "CCOc1ccccc1NC(=O)Nc1ccc(Cl)cc1", "Potency": "inconclusive [inhibitor, full curve, poor fit]"}, {"compound": "CCOC(=O)C(NC(=O)c1cccc(Cl)c1)(OCc1ccc(F)cc1)C(F)(F)F", "note": "(centres undefined)", "Potency": "inconclusive [inhibitor, full curve, poor fit]"}, {"compound": "O=C(OCC(=O)N1CCC(c2ccccc2)=N1)c1ccc([N+](=O)[O-])s1", "Potency": "inconclusive [inhibitor, single point]"}, {"compound": "Cc1ccccc1NC(=S)N/N=C/c1ccc(O)cc1O", "Potency": "inconclusive [inhibitor, single point]"}, {"compound": "Cc1ccc(CNC(=O)C2CC(c3cc(C(F)(F)F)cc(C(F)(F)F)c3)=NO2)o1", "note": "(centres undefined)", "Potency": "inconclusive [inhibitor, full curve, poor fit]"}, {"compound": "Cc1ccc(S(=O)(=O)N2CCCN(C(=O)c3ccc(-n4cccn4)cc3)CC2)cc1", "Potency": "inactive"}, {"compound": "CC(=O)Nc1sc(N/N=C\\c2ccccc2F)nc1-c1cccs1", "Potency": "inactive"}, {"compound": "O=C(C1=C(O)C(=O)N(Cc2ccco2)C1c1cccc(Cl)c1)c1ccco1", "note": "(centres undefined)", "Potency": "inconclusive [inhibitor, single point]"}, {"compound": "Cc1cc2oc(=O)cc(CN3CCOCC3)c2cc1Cl", "Potency": "inconclusive [inhibitor, single point]"}, {"compound": "COC(=O)CCCCCCCC(=O)Nc1nnc(C(F)(F)F)s1", "Potency": "inconclusive [inhibitor, single point]"}, {"compound": "NNc1ccccc1C(F)(F)F", "Potency": "inactive"}, {"compound": "CCc1c(C)sc(NC(=S)Nc2nc(C)cc(C)n2)c1C(=O)OC", "Potency": "inactive"}, {"compound": "CCCn1c(=O)c(C(=O)NCc2ccccn2)c(O)c2ccccc21", "Potency": "inconclusive [inhibitor, partial curve]"}, {"compound": "Cc1ccccc1S(=O)(=O)Cc1ccc(C(=O)NC2CC2)o1", "Potency": "inconclusive [inhibitor, partial curve]"}, {"compound": "Cc1ccc(NC(=O)c2ccc(OC(=O)CCN3C(=O)c4ccccc4C3=O)cc2)cc1", "Potency": "inactive"}, {"compound": "Cc1ccc2nc(-c3ccc(NS(=O)(=O)c4ccc(F)c(F)c4)cc3)sc2c1", "Potency": "inconclusive [inhibitor, single point]"}, {"compound": "Cc1nc([N+](=O)[O-])c(C(=O)OCc2ccccc2)n1C", "Potency": "inconclusive [inhibitor, full curve, poor fit]"}, {"compound": "CCC(C(=O)NCc1ccccc1)n1c(Cc2cc(F)cc(F)c2)nc2ccccc21", "note": "(centres undefined)", "Potency": "inactive"}, {"compound": "COc1ccc(N2CCN(c3ncnc4scc(-c5ccc(F)cc5)c34)CC2)cc1", "Potency": "inconclusive [inhibitor, full curve, poor fit]"}, {"compound": "COC(=O)C1=NNCC12CC(=O)N(c1ccc(Br)cc1)C2=O", "note": "(centres undefined)", "Potency": "inconclusive [inhibitor, partial curve, poor fit]"}, {"compound": "O=C(OCC(=O)C12CC3CC(CC(C3)C1)C2)c1ccccc1O", "Potency": "inconclusive [inhibitor, partial curve, poor fit]"}, {"compound": "CCN(Cc1cnn(C)c1)Cc1nc(Cc2ccccc2Cl)no1", "Potency": "inconclusive [inhibitor, single point]"}, {"compound": "O=[N+]([O-])c1ccc(N2CCN(CCO)CC2)cc1Sc1nc2ccccc2[nH]1", "Potency": "inconclusive [inhibitor, single point]"}, {"compound": "CCCCn1c(CNC(=O)C23CC4CC(CC(C4)C2)C3)nnc1SCC(=O)Nc1nnc(C)s1", "Potency": "inconclusive [inhibitor, single point]"}, {"compound": "O=C(Oc1ccccc1[N+](=O)[O-])c1cccnc1", "Potency": "inconclusive [inhibitor, full curve, poor fit]"}, {"compound": "CSc1ncc(CN2CCCC(C(=O)Nc3ccc(-c4ccco4)cc3)C2)cn1", "note": "(centres undefined)", "Potency": "inconclusive [inhibitor, full curve, poor fit]"}, {"compound": "Oc1c(CN2CCc3ccccc3C2)cc(Cl)c2cccnc12", "Potency": "inactive"}, {"compound": "CCOc1ccc(NS(=O)(=O)c2ccc(NC(=S)NC(=O)C(C)C)cc2)cc1", "Potency": "inconclusive [inhibitor, single point]"}, {"compound": "CC1CCCCC1NC(=O)CCCn1c(=S)[nH]c2ccccc2c1=O", "note": "(centres undefined)", "Potency": "inconclusive [inhibitor, partial curve]"}, {"compound": "CC(C)CC1=NC(C(F)(F)F)(C(F)(F)F)c2c(n(CC(C)C)c(=O)[nH]c2=O)N1", "Potency": "inactive"}, {"compound": "Cc1ccc(NC(=O)c2cnc(N3CCN(c4ccccn4)CC3)c3ccccc23)c(Br)c1", "Potency": "inconclusive [inhibitor, full curve]"}, {"compound": "O=C(O)c1ccc(NS(=O)(=O)c2ccc3c(c2)C(=O)c2ccccc2C3=O)cc1", "Potency": "inconclusive [inhibitor, full curve, poor fit]"}, {"compound": "COc1ccc(C(=O)Oc2cc(C)[nH]c(=O)c2[N+](=O)[O-])c(OC)c1", "Potency": "inconclusive [inhibitor, full curve, poor fit]"}, {"compound": "CCN(CC)c1ccc(/C=C2\\C(=O)c3ccc(C(=O)O)cc3C2=O)cc1", "Potency": "inconclusive [inhibitor, single point]"}, {"compound": "C=C(C)C(=O)Nc1cccc(C2=NOC3(C2)C[C@@H](C(N)=O)N(C(=O)C2(C)CC2)C3)c1", "note": "(some centres undefined)", "Potency": "inactive"}, {"compound": "CC[n+]1ccc(/C=C/c2c[nH]c3ccccc23)cc1", "Potency": "inactive"}, {"compound": "O=C(NNc1cc(N2CCOCC2)nc(N2CCOCC2)n1)c1ccc([N+](=O)[O-])cc1", "Potency": "inconclusive [inhibitor, full curve]"}, {"compound": "C#CCNC(=O)C1=C[C@@H](c2ccc(C#C)cc2)C[C@@H](OCCCCO)O1", "Potency": "inconclusive [inhibitor, partial curve]"}, {"compound": "Cc1nn(-c2ccccc2)c2sc(-c3n[nH]c(=S)o3)cc12", "Potency": "inconclusive [inhibitor, partial curve]"}, {"compound": "CC1CCN(CCCCOc2ccc(C(C)(C)C)cc2)CC1", "Potency": "inactive"}, {"compound": "Cc1cc(=O)[nH]c(N/N=C/c2cc(C)n(CC(F)(F)F)c2C)n1", "Potency": "inconclusive [inhibitor, single point]"}, {"compound": "O=S(=O)(Nc1nc2ccccc2nc1Cl)c1cccc(C(F)(F)F)c1", "Potency": "inconclusive [inhibitor, full curve, poor fit]"}, {"compound": "CC(C)=CCN1CCN(Cc2cccc3nonc23)CC1CCO", "note": "(centres undefined)", "Potency": "inconclusive [inhibitor, partial curve]"}, {"compound": "Cc1cc(C(=O)Nc2cccc(-c3ccc(N4CCOCC4)nn3)c2)ccc1[N+](=O)[O-]", "Potency": "inconclusive [inhibitor, partial curve]"}, {"compound": "Cc1ccc(NC(=O)c2cccc(S(=O)(=O)Nc3c(C)n(C)n(-c4ccccc4)c3=O)c2)cc1C", "Potency": "inactive"}, {"compound": "O=C1Nc2ccccc2-n2nnnc2C1N1CCN(c2cccc(C(F)(F)F)n2)CC1", "note": "(centres undefined)", "Potency": "inactive"}, {"compound": "CCOC(=O)N1CCN(S(=O)(=O)N2CCCC(C(=O)NCc3ccc(OC)cc3)C2)CC1", "note": "(centres undefined)", "Potency": "inconclusive [inhibitor, full curve, poor fit]"}, {"compound": "CSc1ccccc1C(=O)OCC(=O)NC1CCS(=O)(=O)C1", "note": "(centres undefined)", "Potency": "inconclusive [inhibitor, single point]"}, {"compound": "CS(=O)(=O)C1=NSC2=NC(=O)/C(=C\\c3cccn3-c3ccccc3Cl)C(=N)N21", "Potency": "inconclusive [inhibitor, partial curve]"}]}]}
